Source: the antibiotic and cytotoxicity screens of Wong et al. (2023)
The list shows a part of the results.

test system: S. aureus RN4220; assay: growth inhibition call (relative growth <= 0.2); details: 50 µM

Growth inhibition call, inactive:
C[C@@H]1CN([C@H](C)CO)C(=O)c2cc(NC(=O)Nc3ccc(F)cc3)ccc2O[C@@H](C)CCCCO[C@@H]1CN(C)Cc1ccc(C(F)(F)F)cc1, CC1(C)CC[C@]2(C(=O)O[C@@H]3O[C@H](CO)[C@@H](O)[C@H](O)[C@H]3O)CC[C@]3(C)C(=CC[C@H]4[C@@]5(C)CC[C@@H](O[C@@H]6O[C@H](C(=O)O)[C@@H](O[C@@H]7OC[C@@H](O)[C@H](O)[C@H]7O)[C@H](O[C@@H]7OC[C@](O)(CO)[C@H]7O)[C@H]6O)C(C)(C)[C@@H]5CC[C@]43C)[C@@H]2C1, C[C@@H]1CN([C@@H](C)CO)S(=O)(=O)c2ccc(/C=C/c3ccccc3)cc2O[C@@H]1CN(C)C(=O)Nc1cc(F)ccc1F, COc1ccc(NC(=O)N(C)C[C@H]2Oc3ccc(NC(=O)CCCCCC(=O)Nc4ccccc4N)cc3CC(=O)N([C@@H](C)CO)C[C@H]2C)cc1, C[C@@H]1CN([C@@H](C)CO)C(=O)Cc2cc(NS(C)(=O)=O)ccc2O[C@@H]1CN(C)S(=O)(=O)c1ccc(Cl)cc1, Cc1noc(C)c1NC(=O)Nc1cccc2c1O[C@H](CN(C)Cc1ccc(Oc3ccccc3)cc1)[C@H](C)CN([C@H](C)CO)C2=O, C[C@@H]1CCCCO[C@@H](CN(C)C(=O)c2ccccc2)[C@H](C)CN([C@@H](C)CO)C(=O)c2cc(NC(=O)Nc3cccc4ccccc34)ccc2O1, C[C@@H]1CN([C@@H](C)CO)C(=O)c2cc(NC(=O)Cc3cn(C)c4ccccc34)ccc2O[C@H]1CN(C)Cc1ccc(C(=O)Nc2ccccc2N)cc1, CCCC(=O)Nc1ccc2c(c1)C(=O)N(C)[C@H]1CC[C@@H](CC(=O)NCCN3CCCCC3)O[C@@H]1CO2, CCOC(=O)Cn1c(=O)c(C(N)=S)cn(C(C)C)c1=O, C[C@@H]1CN([C@H](C)CO)C(=O)c2cc(NC(=O)Cc3ccccc3)ccc2O[C@@H](C)CCCCO[C@H]1CN(C)C(=O)Nc1ccc(F)cc1, C[C@@H]1CN([C@H](C)CO)C(=O)c2cc(NC(=O)Nc3cccc4ccccc34)ccc2O[C@@H](C)CCCCO[C@@H]1CN(C)S(=O)(=O)c1cccs1, Cc1noc(C)c1NC(=O)N(C)C[C@H]1OCCCC[C@@H](C)Oc2ccc(NC(=O)Cc3ccccc3)cc2C(=O)N([C@H](C)CO)C[C@H]1C, C[C@@H]1CN([C@H](C)CO)S(=O)(=O)c2ccc(C#CC3CCCCC3)cc2O[C@H]1CN(C)C(=O)Cc1ccncc1, C[C@@H]1CCCCO[C@H](CN(C)S(=O)(=O)c2ccc(F)cc2)[C@@H](C)CN([C@@H](C)CO)C(=O)c2cc(NC(=O)Nc3ccc(F)cc3)ccc2O1, CC(C)NC(=O)Nc1ccc2c(c1)C(=O)N(C)[C@H]1CC[C@@H](CC(=O)NCc3ccc(F)cc3)O[C@@H]1CO2, COc1ccc(C#Cc2ccc3c(c2)O[C@@H](CN(C)C(=O)c2ccccn2)[C@@H](C)CN([C@H](C)CO)S3(=O)=O)cc1, C[C@@H]1CN([C@H](C)CO)C(=O)c2cc(NC(=O)Nc3ccccc3)ccc2O[C@@H](C)CCCCO[C@H]1CN(C)S(=O)(=O)c1cccs1, NCC(=O)NCC(=O)O, C[C@H]1CCCCO[C@@H](CN(C)S(=O)(=O)c2cccs2)[C@@H](C)CN([C@@H](C)CO)C(=O)c2cc(NC(=O)Nc3ccc4c(c3)OCO4)ccc2O1, CSC[C@H]1O[C@H](n2ccc3c(N)ncnc32)[C@@H](O)[C@H]1O, C[C@H](CO)N1C[C@H](C)[C@@H](CN(C)Cc2ccc(F)cc2)Oc2cc(C#CC(C)(C)O)ccc2S1(=O)=O, O=C(C[C@@H]1CC[C@H]2[C@@H](COC[C@H](O)CN2S(=O)(=O)c2ccccc2)O1)NCc1ccc(-c2ccccc2)cc1, O=C(C[C@H]1CC[C@H](NC(=O)CN2CCOCC2)[C@H](CO)O1)NC1CCC1, C[C@H]1CN([C@@H](C)CO)C(=O)Cc2cc(NS(=O)(=O)c3ccc(F)cc3)ccc2O[C@@H]1CN(C)S(=O)(=O)c1ccc(F)cc1, COc1ccc(S(=O)(=O)Nc2ccc3c(c2)C(=O)N([C@@H](C)CO)C[C@H](C)[C@@H](CN(C)S(=O)(=O)c2cn(C)cn2)OCCCC[C@H](C)O3)cc1, C[C@@H]1CN([C@@H](C)CO)S(=O)(=O)c2ccc(-c3ccc(C(=O)N(C)C)cc3)cc2O[C@H]1CN(C)C(=O)Cc1ccccn1, Cc1ccc(S[C@]2(C(=O)NCC(C)C)CC(=O)N(Cc3cc(C(F)(F)F)cc(C(F)(F)F)c3)[C@@H]2c2ccc(CO)cc2I)cc1, CCCN(C)C[C@H]1OCCCC[C@H](C)Oc2ccc(NC(=O)Cc3ccccc3)cc2C(=O)N([C@H](C)CO)C[C@H]1C, C[C@@H]1CN([C@@H](C)CO)C(=O)c2cc(NC(=O)Nc3ccc(C(F)(F)F)cc3)ccc2O[C@@H](C)CCCCO[C@H]1CN(C)Cc1ccc2c(c1)OCO2, C[C@@H]1CCCCO[C@H](CN(C)S(C)(=O)=O)[C@H](C)CN([C@@H](C)CO)C(=O)c2cc(NS(=O)(=O)c3cn(C)cn3)ccc2O1, COc1ccc2c(c1)OCC(Cc1ccc(OC)c(O)c1)C2=O (stereo not given), C[C@@H]1CN([C@H](C)CO)C(=O)c2cc(NC(=O)Nc3cccc4ccccc34)ccc2O[C@@H]1CN(C)Cc1ccc2c(c1)OCO2, CC(C)CC#Cc1cnc2c(c1)C(=O)N([C@@H](C)CO)C[C@@H](C)[C@@H](CN(C)S(=O)(=O)c1cccs1)O2, Cc1noc(C)c1NC(=O)Nc1ccc2c(c1)C(=O)N([C@@H](C)CO)C[C@H](C)[C@H](CN(C)Cc1ccc(C(F)(F)F)cc1)O2, C[C@H](CO)N1C[C@H](C)[C@@H](CN(C)C(=O)CCCN(C)C)OCCCC[C@H](C)Oc2ccc(NC(=O)Nc3ccc(F)cc3)cc2C1=O, C[C@@H]1CN([C@@H](C)CO)C(=O)c2cc(NS(=O)(=O)c3ccc(F)cc3)ccc2O[C@H]1CN(C)Cc1ccncc1, COc1cccc(CNC(=O)C[C@H]2C=C[C@H](NC(=O)C3CCOCC3)[C@H](CO)O2)c1, C[C@@H]1CCCCO[C@@H](CN(C)S(=O)(=O)c2cn(C)cn2)[C@@H](C)CN([C@@H](C)CO)C(=O)c2cc(NC(=O)CCCN(C)C)ccc2O1, C[C@@H]1CCCCO[C@@H](CN(C)C(=O)Nc2cccc3ccccc23)[C@H](C)CN([C@@H](C)CO)C(=O)c2cc(N(C)C)ccc2O1
